Some of the results follow.
What was measured:
Assay in all cases: glycan array binding signal (z-score within array); higher = stronger binding
Details in all cases: glycan notation: IUPAC condensed, linker removed
[1] = biological target: GlcNAc(b1-3)Gal(b1-4)GlcNAc(b1-3)Gal(b1-4)GlcNAc(b1-3)GalNAc
Summary of the method: (§1)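 The binding signal is a Z-score computed within each array and averaged over linkers. Arrays of the same protein sequence at different concentrations or buffers were also averaged together. Data originate from 3228 arrays in the Consortium for Functional Glycomics database, kept only where the protein sequence was available.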

[2] = biological target: GlcNAc(b1-3)Gal(b1-4)GlcNAc(b1-3)GalNAc
Summary of the method: as §1

[3] = biological target: GlcNAc(b1-3)Gal(b1-4)GlcNAc(b1-3)[GlcNAc(b1-3)Gal(b1-4)GlcNAc(b1-3)]GalNAc
Summary of the method: as §1

[4] = biological target: GlcNAc(b1-3)Gal(b1-4)GlcNAc(b1-6)[Gal(b1-3)]GalNAc
Summary of the method: as §1

[5] = biological target: GlcNAc(b1-3)Gal(b1-4)GlcNAc(b1-6)[GlcNAc(b1-3)Gal(b1-3)]GalNAc
Summary of the method: as §1

[6] = biological target: GlcNAc(b1-3)Gal(b1-4)GlcNAc(b1-6)[GlcNAc(b1-3)]Gal(b1-4)GlcNAc
Summary of the method: as §1

GlcNAc(b1-3)GalNAc = biological target: GlcNAc(b1-3)GalNAc
Summary of the method: as §1

GlcNAc(b1-3)Man = biological target: GlcNAc(b1-3)Man
Summary of the method: as §1

[7] = biological target: GlcNAc(b1-3)[GlcNAc(b1-4)][GlcNAc(b1-6)]GlcNAc
Summary of the method: as §1

[8] = biological target: GlcNAc(b1-3)[GlcNAc(b1-6)]Gal(b1-4)GlcNAc
Summary of the method: as §1

[9] = biological target: GlcNAc(b1-3)[GlcNAc(b1-6)]GalNAc
Summary of the method: as §1

[10] = biological target: GlcNAc(b1-4)Gal(b1-4)GlcNAc
Summary of the method: as §1

GlcNAc(b1-4)GlcNAc = biological target: GlcNAc(b1-4)GlcNAc
Summary of the method: as §1

[11] = biological target: GlcNAc(b1-4)GlcNAc(b1-4)GlcNAc
Summary of the method: as §1

[12] = biological target: GlcNAc(b1-4)GlcNAc(b1-4)GlcNAc(b1-4)GlcNAc(b1-4)GlcNAc
Summary of the method: as §1

[13] = biological target: GlcNAc(b1-4)GlcNAc(b1-4)GlcNAc(b1-4)GlcNAc(b1-4)GlcNAc(b1-4)GlcNAc
Summary of the method: as §1

[14] = biological target: GlcNAc(b1-4)[GlcNAc(b1-6)]GalNAc
Summary of the method: as §1

[15] = biological target: GlcNAc(b1-6)Gal(b1-4)GlcNAc
Summary of the method: as §1

GlcNAc(b1-6)GalNAc = biological target: GlcNAc(b1-6)GalNAc
Summary of the method: as §1

[16] = biological target: GlcNAc6S(b1-3)Gal(b1-4)GlcNAc
Summary of the method: as §1

Kdn(a2-3)Gal(b1-3)GalNAc = biological target: Kdn(a2-3)Gal(b1-3)GalNAc
Summary of the method: as §1

Kdn(a2-3)Gal(b1-3)GlcNAc = biological target: Kdn(a2-3)Gal(b1-3)GlcNAc
Summary of the method: as §1

Kdn(a2-3)Gal(b1-4)Glc = biological target: Kdn(a2-3)Gal(b1-4)Glc
Summary of the method: as §1

Kdn(a2-3)Gal(b1-4)GlcNAc = biological target: Kdn(a2-3)Gal(b1-4)GlcNAc
Summary of the method: as §1

[17] = biological target: Kdn(a2-3)Gal(b1-4)[Fuc(a1-3)]GlcNAc
Summary of the method: as §1

Kdn(a2-6)Gal(b1-4)GlcNAc = biological target: Kdn(a2-6)Gal(b1-4)GlcNAc
Summary of the method: as §1

[18] = biological target: Man(a1-2)Man(a1-2)Man(a1-3)Man
Summary of the method: as §1

[19] = biological target: Man(a1-2)Man(a1-2)Man(a1-6)[Man(a1-3)]Man
Summary of the method: as §1

Man(a1-2)Man(a1-3)Man = biological target: Man(a1-2)Man(a1-3)Man
Summary of the method: as §1

[20] = biological target: Man(a1-2)Man(a1-3)[Man(a1-2)Man(a1-6)]Man
Summary of the method: as §1

[21] = biological target: Man(a1-2)Man(a1-3)[Man(a1-2)Man(a1-6)]Man(a1-6)[Man(a1-2)Man(a1-2)Man(a1-3)]Man
Summary of the method: as §1

[22] = biological target: Man(a1-2)Man(a1-3)[Man(a1-2)Man(a1-6)]Man(a1-6)[Man(a1-2)Man(a1-2)Man(a1-3)]Man(b1-4)GlcNAc(b1-4)GlcNAc
Summary of the method: as §1

[23] = biological target: Man(a1-2)Man(a1-3)[Man(a1-6)]Man(a1-6)[Man(a1-2)Man(a1-3)]Man(b1-4)GlcNAc(b1-4)GlcNAc
Summary of the method: as §1

[24] = biological target: Man(a1-2)Man(a1-6)[Man(a1-3)]Man(a1-6)[Man(a1-2)Man(a1-2)Man(a1-3)]Man
Summary of the method: as §1

[25] = biological target: Man(a1-2)Man(a1-6)[Man(a1-3)]Man(a1-6)[Man(a1-2)Man(a1-2)Man(a1-3)]Man(b1-4)GlcNAc(b1-4)GlcNAc
Summary of the method: as §1

Man(a1-3)[Man(a1-6)]Man = biological target: Man(a1-3)[Man(a1-6)]Man
Summary of the method: as §1

[26] = biological target: Man(a1-3)[Man(a1-6)]Man(a1-6)[Man(a1-2)Man(a1-3)]Man(b1-4)GlcNAc(b1-4)GlcNAc
Summary of the method: as §1

[27] = biological target: Man(a1-3)[Man(a1-6)]Man(a1-6)[Man(a1-3)]Man
Summary of the method: as §1

[28] = biological target: Man(a1-3)[Man(a1-6)]Man(a1-6)[Man(a1-3)]Man(b1-4)GlcNAc(b1-4)GlcNAc
Summary of the method: as §1

[29] = biological target: Man(a1-3)[Man(a1-6)]Man(b1-4)GlcNAc(b1-4)GlcNAc
Summary of the method: as §1

[30] = biological target: Man(a1-3)[Man(a1-6)]Man(b1-4)GlcNAc(b1-4)[Fuc(a1-6)]GlcNAc
Summary of the method: as §1

Man(a1-6)Man = biological target: Man(a1-6)Man
Summary of the method: as §1

Man(b1-4)GlcNAc = biological target: Man(b1-4)GlcNAc
Summary of the method: as §1

MurNAc(b1-4)GlcNAc = biological target: MurNAc(b1-4)GlcNAc
Summary of the method: as §1

Neu5Ac(a2-3)Gal = biological target: Neu5Ac(a2-3)Gal
Summary of the method: as §1

B1: Mg3lysM (Mycosphaerella graminicola) (protein)
chain: APQNPPTSCSAAPQPTGTGSPGTVCGSTTFTNYTVKAGDTLGAIAKQYNSGVCDIAKVNGIDNPDYIKPDQVLSIPANCVTPDNTSCVKPVPVITNTCVLGVGSTYTVKSGDSFSAIATSFNITLASLEARNPQIPNYDLIFPGQVINTPLCPNSVCDSIGTYVIESGDIFYNLAQSNNVTVGQLESLNVNVNVTDIHPGDIIILPHNCHNITASA
B1 was tested. Which “glycan array binding signal (z-score)” value [1] did it give?
Its value is -0.11.

And the “glycan array binding signal (z-score)” value [2]?
Its value is 0.057.

And the “glycan array binding signal (z-score)” value [3]?
The value was -0.065.

And the “glycan array binding signal (z-score)” value [4]?
The value was -0.09.

What about the “glycan array binding signal (z-score)” value [5] of the same binder?
The value was -0.034.

And the “glycan array binding signal (z-score)” value [6]?
Its value is -0.025.

And the “glycan array binding signal (z-score)” value (GlcNAc(b1-3)GalNAc)?
Its value is -0.066.

What about the “glycan array binding signal (z-score)” value (GlcNAc(b1-3)Man) of the same binder?
Its value is -0.025.

And the “glycan array binding signal (z-score)” value [7]?
The value was -0.022.

What about the “glycan array binding signal (z-score)” value [8] of the same binder?
Its value is -0.098.

And the “glycan array binding signal (z-score)” value [9]?
Its value is -0.075.

What about the “glycan array binding signal (z-score)” value [10] of the same binder?
The value was -0.079.

And the “glycan array binding signal (z-score)” value (GlcNAc(b1-4)GlcNAc)?
Its value is -0.082.

And the “glycan array binding signal (z-score)” value [11]?
Its value is 3.96.

What about the “glycan array binding signal (z-score)” value [12] of the same binder?
The value was 19.9.

What about the “glycan array binding signal (z-score)” value [13] of the same binder?
Its value is 13.5.

What about the “glycan array binding signal (z-score)” value [14] of the same binder?
Its value is -0.013.

And the “glycan array binding signal (z-score)” value [15]?
Its value is -0.11.

What about the “glycan array binding signal (z-score)” value (GlcNAc(b1-6)GalNAc) of the same binder?
The value was 0.007.

And the “glycan array binding signal (z-score)” value [16]?
The value was -0.131.

And the “glycan array binding signal (z-score)” value (Kdn(a2-3)Gal(b1-3)GalNAc)?
The value was 0.259.

And the “glycan array binding signal (z-score)” value (Kdn(a2-3)Gal(b1-3)GlcNAc)?
Its value is -0.127.

What about the “glycan array binding signal (z-score)” value (Kdn(a2-3)Gal(b1-4)Glc) of the same binder?
The value was 0.018.

And the “glycan array binding signal (z-score)” value (Kdn(a2-3)Gal(b1-4)GlcNAc)?
Its value is 0.003.

What about the “glycan array binding signal (z-score)” value [17] of the same binder?
The value was -0.078.

What about the “glycan array binding signal (z-score)” value (Kdn(a2-6)Gal(b1-4)GlcNAc) of the same binder?
Its value is -0.066.

What about the “glycan array binding signal (z-score)” value [18] of the same binder?
Its value is -0.099.

And the “glycan array binding signal (z-score)” value [19]?
Its value is 0.015.

What about the “glycan array binding signal (z-score)” value (Man(a1-2)Man(a1-3)Man) of the same binder?
The value was -0.104.

What about the “glycan array binding signal (z-score)” value [20] of the same binder?
Its value is -0.142.

What about the “glycan array binding signal (z-score)” value [21] of the same binder?
The value was -0.056.

What about the “glycan array binding signal (z-score)” value [22] of the same binder?
Its value is -0.074.

What about the “glycan array binding signal (z-score)” value [23] of the same binder?
Its value is -0.165.

And the “glycan array binding signal (z-score)” value [24]?
The value was -0.05.

And the “glycan array binding signal (z-score)” value [25]?
Its value is -0.112.

And the “glycan array binding signal (z-score)” value (Man(a1-3)[Man(a1-6)]Man)?
Its value is -0.119.

And the “glycan array binding signal (z-score)” value [26]?
Its value is -0.02.

What about the “glycan array binding signal (z-score)” value [27] of the same binder?
The value was -0.018.

And the “glycan array binding signal (z-score)” value [28]?
The value was -0.098.

And the “glycan array binding signal (z-score)” value [29]?
The value was -0.125.

And the “glycan array binding signal (z-score)” value [30]?
Its value is -0.074.

And the “glycan array binding signal (z-score)” value (Man(a1-6)Man)?
Its value is 0.038.

What about the “glycan array binding signal (z-score)” value (Man(b1-4)GlcNAc) of the same binder?
Its value is 0.12.

What about the “glycan array binding signal (z-score)” value (MurNAc(b1-4)GlcNAc) of the same binder?
Its value is -0.03.

What about the “glycan array binding signal (z-score)” value (Neu5Ac(a2-3)Gal) of the same binder?
Its value is -0.059.
